The labels stand for the following.
B1: LINE1-mini (parent)
chain: GGCAGAGCUCAACACAGCGUGGCAAAGUGGCUGUGGCUAGACUGCC

Read counts are not given, so values of variants with three or more changes are uncertain.

In the series the parent is B1. The experiment in a line: self-cleavage, relative activity (ratio to wild type); higher = more cleavage; in vitro, sequencing; the parent is a self-cleaving ribozyme.
Take GGCAGAGCUCAACACAGCGUGGCCAAGUGGCUUUGGCUAGAAUGCC [A24C G33U C42A]: the self-cleavage is 0.03.

Turning to GGCAGAGCUCAACACAGCGUGGCGUAGUGGCUGUUGCUAGACUGCC [A24G A25U G35U], the self-cleavage is 0.06.

Consider GGCAGAGCUCAACACAGCGUGGCCAAGUGGCUGUGGCAAGACUGUC [A24C U38A C45U], for which the self-cleavage came out at 0.32.

In the case of GGCAGAGCUCAACACAGCGUGGUAAAGUUGCUGUGGCUAGACUGCA [C23U G29U C46A], the self-cleavage turned out to be 0.24.

As for GGCAGAGCUCAACACAGCGUGGCCAAGUGGCUAUGGUUAGAUUCCC [A24C G33A C37U C42U G44C], the self-cleavage amounted to 0.01.

As for GGCAGAGCUCAACACAGCGUGGUAAAGUGCCUGUGGCUAGACUGCU [C23U G30C C46U], the self-cleavage amounted to 2.08.

Turning to GGCAGAGCUCAACACAGCGUGGUAAAGUGGCUGUGUCUAGACCGCC [C23U G36U U43C], the self-cleavage is 0.06.

As to GGCAGAGCUCAACACAGCGUGGCCAAGUGGCUCUGGCAAGAGUGCA [A24C G33C U38A C42G C46A], the self-cleavage was 0.01.

Consider GGCAGAGCUCAACACAGCGUGGCGCUGUGGAUGUGGCUAAACUGCC [A24G A25C A26U C31A G40A], for which the self-cleavage was 0.02.

GGCAGAGCUCAACACAGCGUGGCCAAGUGGCUGUGGGUACACUGCC [A24C C37G G40C]: the self-cleavage worked out at 0.08.

In the case of GGCAGAGCUCAACACAGCGUGGCCAAGUGGCGGGGGCUAGACUACC [A24C U32G U34G G44A], the self-cleavage amounted to 0.01.

As for GGCAGAGCUCAACACAGCGUGGUAAAGUGGCUAUGGCCAGACUGCC [C23U G33A U38C], the self-cleavage came to 0.07.

GGCAGAGCUCAACACAGCGUGGCCAAGUGGCUGUGGUUAGCCUGCC [A24C C37U A41C]: the self-cleavage worked out at 0.

GGCAGAGCUCAACACAGCGUGGCGAAGUGGCUGUGGCUAGCAUGCC [A24G A41C C42A]: the self-cleavage was 0.05.

Consider GGCAGAGCUCAACACAGCGUGGCCAGGUGUCUGUGGCUAGACUACC [A24C A26G G30U G44A], for which the self-cleavage was 0.08.

For GGCAGAGCUCAACACAGCGUGGUAAAGCGGCUUUGGCUAGACUGCC [C23U U28C G33U], the self-cleavage is 0.07.

For the variant GGCAGAGCUCAACACAGCGUGGUAAAGUGGCUGCGGCUAGACUGCA [C23U U34C C46A], the self-cleavage was 0.32.

With GGCAGAGCUCAACACAGCGUGGUAAAGUGGCUGUUGAUAGACUGCC [C23U G35U C37A], the self-cleavage was 0.04.

Take GGCAGAGCUCAACACAGCGUGGCCAAGGCGUUGUGGCUAUACUGCC [A24C U28G G29C C31U G40U]: the self-cleavage turned out to be 0.03.

For the variant GGCAGAGCUCAACACAGCGUGGUAAACUGGCUGUGGCUAGACUGCU [C23U G27C C46U], the self-cleavage stood at 0.58.

As for GGCAGAGCUCAACACAGCGUGGCCAAGUGGCUGUGGGUAGCCUGCU [A24C C37G A41C C46U], the self-cleavage turned out to be 0.03.

Consider GGCAGAGCUCAACACAGCGUGGCGAAGUGGGUGUGGCUAGAAUGCC [A24G C31G C42A], for which the self-cleavage came to 0.06.

In the case of GGCAGAGCUCAACACAGCGUGGUAAAGUGACUGUGUCAAGACUUCC [C23U G30A G36U U38A G44U], the self-cleavage came out at 0.23.

Turning to GGCAGAGCUCAACACAGCGUGGCCAAGUCGCUGUGGCUAGACUGCG [A24C G29C C46G], the self-cleavage amounted to 0.11.

As for GGCAGAGCUCAACACAGCGUGGUAAAGGGGCUGCGGCAAGACUGCC [C23U U28G U34C U38A], the self-cleavage came out at 0.26.

Take GGCAGAGCUCAACACAGCGUGGUAAAUUGGCUGUGACUAGACUGCC [C23U G27U G36A]: the self-cleavage was found to be 0.02.

Regarding GGCAGAGCUCAACACAGCGUGGCCACGUGGCUGUAGCUAGACUGCC [A24C A26C G35A], the self-cleavage is 0.09.

Regarding GGCAGAGCUCAACACAGCGUGGCCAAGUGCCUUUGGCUAGACUGCC [A24C G30C G33U], the self-cleavage came out at 0.14.

Take GGCAGAGCUCAACACAGCGUGGCCAAGUGGCUGUGACUUGACUGUC [A24C G36A A39U C45U]: the self-cleavage stood at 0.05.

As for GGCAGAGCUCAACACAGCGUGGCCACGUGGCUGUGGCUAUACUGCC [A24C A26C G40U], the self-cleavage was determined as 0.05.

With GGCAGAGCUCAACACAGCGUGGUAAAGUGGCCGUGGCCAGACUGCC [C23U U32C U38C], the self-cleavage came out at 0.8.

In the case of GGCAGAGCUCAACACAGCGUGGUAAAGUGGCUGUAACUAGACUGCC [C23U G35A G36A], the self-cleavage came out at 0.09.

On to GGCAGAGCUCAACACAGCGUGGUAAAGUGGCUCUGCCUAGGCUGCG [C23U G33C G36C A41G C46G], for which the self-cleavage was 0.01.

With GGCAGAGCUCAACACAGCGUGGCGAAGUGGCUGUGGCUAGUCUUCC [A24G A41U G44U], the self-cleavage turned out to be 0.03.

As for GGCAGAGCUCAACACAGCGUGGCCAAGCGGCUGUGGCUAGGCUGCC [A24C U28C A41G], the self-cleavage turned out to be 0.06.

Consider GGCAGAGCUCAACACAGCGUGGUAAAGUGGCUGUGGAUAGGCUGCC [C23U C37A A41G], for which the self-cleavage turned out to be 0.14.

With GGCAGAGCUCAACACAGCGUGGUAAAGUUGCUGUGGAUAGCCUGUC [C23U G29U C37A A41C C45U], the self-cleavage is 0.01.

Turning to GGCAGAGCUCAACACAGCGUGGUAAAGUGUCUGUGGGUAGACUGCC [C23U G30U C37G], the self-cleavage came out at 0.01.

Turning to GGCAGAGCUCAACACAGCGUGGUAAAGUGGCUAUGGGUAGCCUGCC [C23U G33A C37G A41C], the self-cleavage is 0.44.

Take GGCAGAGCUCAACACAGCGUGGCCAAGUGGCUGUCGCUAAACUGCC [A24C G35C G40A]: the self-cleavage was found to be 0.15.

With GGCAGAGCUCAACACAGCGUGGUAAAGCGGCUGUGGAUAGACUGGC [C23U U28C C37A C45G], the self-cleavage turned out to be 0.1.

For the variant GGCAGAGCUCAACACAGCGUGGUAAAGUAGCUGUCGCUAGCCUGCA [C23U G29A G35C A41C C46A], the self-cleavage came out at 0.06.

Consider GGCAGAGCUCAACACAGCGUGGCCAAGUGGCUGUGCCUAGUCUGCC [A24C G36C A41U], for which the self-cleavage came out at 0.13.

For GGCAGAGCUCAACACAGCGUGGCCAACUAGCUGUGGCUAGACGGCC [A24C G27C G29A U43G], the self-cleavage worked out at 0.01.

Consider GGCAGAGCUCAACACAGCGUGGUAAAAUGGCUGUGGCGGCACUGCC [C23U G27A U38G A39G G40C], for which the self-cleavage was 0.02.

As for GGCAGAGCUCAACACAGCGUGGUAAAGUGGCUGUGGCUACAUUGCC [C23U G40C C42U], the self-cleavage worked out at 0.22.

On to GGCAGAGCUCAACACAGCGUGGUAAAGGGACUGUGGCUAGACUGGC [C23U U28G G30A C45G], for which the self-cleavage was found to be 0.09.

As to GGCAGAGCUCAACACAGCGUGGCCAAGUGGCUGUGGCUAGCCUGGC [A24C A41C C45G], the self-cleavage is 0.06.

In the case of GGCAGAGCUCAACACAGCGUGGUAAAGUGGCUGAGGCUAGAGUGCC [C23U U34A C42G], the self-cleavage came out at 0.02.

Turning to GGCAGAGCUCAACACAGCGUGGUAAAGUGGCUCUGGCUACACAGCC [C23U G33C G40C U43A], the self-cleavage came out at 0.01.

Turning to GGCAGAGCUCAACACAGCGUGGUAAAGUGGCUCUGGCUACACUGCC [C23U G33C G40C], the self-cleavage came out at 0.05.

For GGCAGAGCUCAACACAGCGUGGUAAAGUGGCCUUGCCUAGACGGCC [C23U U32C G33U G36C U43G], the self-cleavage turned out to be 0.09.

With GGCAGAGCUCAACACAGCGUGGCCAAGAGGCUGUGGUUAGACUGCC [A24C U28A C37U], the self-cleavage was found to be 0.04.

As to GGCAGAGCUCAACACAGCGUGGCCAAGUGAAUGUGGCGAGACUGCC [A24C G30A C31A U38G], the self-cleavage came out at 0.01.

As for GGCAGAGCUCAACACAGCGUGGUAAAGUGUCUAUGGCUAGACUGCC [C23U G30U G33A], the self-cleavage came to 0.05.

For GGCAGAGCUCAACACAGCGUGGCCGAGUGGGUGUGGCGAGAAUGCC [A24C A25G C31G U38G C42A], the self-cleavage was determined as 0.

The values above are taken from the RNAGym collection of RNA variant scans (doi:10.7554/elife.90254).
